Reference: publication PMC12820563, “FoxP3 forms a head-to-head dimer in vivo and stabilizes its multimerization on adjacent microsatellites”
Some of the results follow.

The sequences below were run against T1, MBP-FoxP1dN (Mus musculus, UniProt P58462 326-579) (assay: PD-seq (MBP pull-down with sequencing); 20 mM Tris-HCl pH 7.5, 100 mM NaCl, 1.5 mM MgCl2, 0.4 uM protein, 0.1 uM dsDNA library, 30 min, room temperature, amylose pull-down; high values mean tight binding). Details: protein: recombinant; tags: His6-MBP; chain copies: 2; dsDNA, one strand shown.
T1 sequence: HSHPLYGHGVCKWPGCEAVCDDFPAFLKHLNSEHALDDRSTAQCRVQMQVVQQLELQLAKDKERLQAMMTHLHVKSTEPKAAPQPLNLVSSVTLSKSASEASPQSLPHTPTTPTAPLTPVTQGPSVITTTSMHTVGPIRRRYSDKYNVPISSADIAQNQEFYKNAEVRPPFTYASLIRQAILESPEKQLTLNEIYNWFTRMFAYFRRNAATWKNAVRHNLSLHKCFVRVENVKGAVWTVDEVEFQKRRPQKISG
Method in brief: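 Binding is given as reads-per-million enrichment, pull-down over input, with replicates pooled. The bait was an N-terminus-lacking mouse FoxP3 or FoxP1 fragment with a His6-MBP tag, expressed in E. coli and used at 0.4 µM with 0.1 µM Klenow-filled degenerate double-stranded DNA library for 30 min at room temperature in Tris pH 7.5 buffer with NaCl and MgCl2. Amylose resin pull-down with three washes was followed by proteinase K release, PCR barcoding and Illumina sequencing.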

In order of falling binding signal:
1. GATGATTGTTCTCCCAGCTGATGAATTGTTGTCTTCGAGTAAACAAATTTTCCTAATCTTTCTGTTCAAGCGCCATCTAC  2.29 RPM ratio (pull-down/input)
2. GATGATTGTTCTCCCAGCTGATGAATTGCAACAATCGAGTAAACAAATTTTCCTAATCTTTCTGTTCAAGCGCCATCTAC  1.91 RPM ratio (pull-down/input)
3. GATGATTGTTCTCCCAGCTGATGAATTTACTGTATCGAGTAAACAAATTTTCCTAATCTTTCTGTTCAAGCGCCATCTAC  1.42 RPM ratio (pull-down/input)
4. GATGATTGTTCTCCCAGCTGATGAATTGCAATGTTCGAGTAAACAAATTTTCCTAATCTTTCTGTTCAAGCGCCATCTAC  1.42 RPM ratio (pull-down/input)
5. GATGATTGTTCTCCCAGCTGATGAATTTATTTTTTCGAGTAAACAAATTTTCCTAATCTTTCTGTTCAAGCGCCATCTAC  1.41 RPM ratio (pull-down/input)
6. GATGATTGTTCTCCCAGCTGATGAATTGCAAATGTCGAGTAAACAAATTTTCCTAATCTTTCTGTTCAAGCGCCATCTAC  1.39 RPM ratio (pull-down/input)
7. GATGATTGTTCTCCCAGCTGATGAATTTACGATATCGAGTAAACAAATTTTCCTAATCTTTCTGTTCAAGCGCCATCTAC  1.3 RPM ratio (pull-down/input)
8. GATGATTGTTCTCCCAGCTGATGAATTTGGTTGTTCGAGTAAACAAATTTTCCTAATCTTTCTGTTCAAGCGCCATCTAC  1.29 RPM ratio (pull-down/input)
9. GATGATTGTTCTCCCAGCTGATGAATTACTAATGTCGAGTAAACAAATTTTCCTAATCTTTCTGTTCAAGCGCCATCTAC  1.28 RPM ratio (pull-down/input)
10. GATGATTGTTCTCCCAGCTGATGAATTTACTTCCTCGAGTAAACAAATTTTCCTAATCTTTCTGTTCAAGCGCCATCTAC  1.28 RPM ratio (pull-down/input)
11. GATGATTGTTCTCCCAGCTGATGAATTGCAAGAATCGAGTAAACAAATTTTCCTAATCTTTCTGTTCAAGCGCCATCTAC  1.24 RPM ratio (pull-down/input)
12. GATGATTGTTCTCCCAGCTGATGAATTTGTCCAATCGAGTAAACAAATTTTCCTAATCTTTCTGTTCAAGCGCCATCTAC  1.2 RPM ratio (pull-down/input)
13. GATGATTGTTCTCCCAGCTGATGAATTACACTCATCGAGTAAACAAATTTTCCTAATCTTTCTGTTCAAGCGCCATCTAC  1.13 RPM ratio (pull-down/input)
14. GATGATTGTTCTCCCAGCTGATGAATTGGTCTAATCGAGTAAACAAATTTTCCTAATCTTTCTGTTCAAGCGCCATCTAC  1.12 RPM ratio (pull-down/input)
15. GATGATTGTTCTCCCAGCTGATGAATTTCGTATATCGAGTAAACAAATTTTCCTAATCTTTCTGTTCAAGCGCCATCTAC  1.1 RPM ratio (pull-down/input)
16. GATGATTGTTCTCCCAGCTGATGAATTATTCATGTCGAGTAAACAAATTTTCCTAATCTTTCTGTTCAAGCGCCATCTAC  1.09 RPM ratio (pull-down/input)
17. GATGATTGTTCTCCCAGCTGATGAATTCGGACAATCGAGTAAACAAATTTTCCTAATCTTTCTGTTCAAGCGCCATCTAC  1.07 RPM ratio (pull-down/input)
18. GATGATTGTTCTCCCAGCTGATGAATTAGACATATCGAGTAAACAAATTTTCCTAATCTTTCTGTTCAAGCGCCATCTAC  1.06 RPM ratio (pull-down/input)
19. GATGATTGTTCTCCCAGCTGATGAATTATCCATATCGAGTAAACAAATTTTCCTAATCTTTCTGTTCAAGCGCCATCTAC  1.04 RPM ratio (pull-down/input)
20. GATGATTGTTCTCCCAGCTGATGAATTTAGAGAATCGAGTAAACAAATTTTCCTAATCTTTCTGTTCAAGCGCCATCTAC  1.04 RPM ratio (pull-down/input)
21. GATGATTGTTCTCCCAGCTGATGAATTAGCAACCTCGAGTAAACAAATTTTCCTAATCTTTCTGTTCAAGCGCCATCTAC  1.04 RPM ratio (pull-down/input)
22. GATGATTGTTCTCCCAGCTGATGAATTATGGGCATCGAGTAAACAAATTTTCCTAATCTTTCTGTTCAAGCGCCATCTAC  1.04 RPM ratio (pull-down/input)
23. GATGATTGTTCTCCCAGCTGATGAATTACGCCACTCGAGTAAACAAATTTTCCTAATCTTTCTGTTCAAGCGCCATCTAC  1.02 RPM ratio (pull-down/input)
24. GATGATTGTTCTCCCAGCTGATGAATTAGTCTTGTCGAGTAAACAAATTTTCCTAATCTTTCTGTTCAAGCGCCATCTAC  1.02 RPM ratio (pull-down/input)
25. GATGATTGTTCTCCCAGCTGATGAATTGCTGGTGTCGAGTAAACAAATTTTCCTAATCTTTCTGTTCAAGCGCCATCTAC  1 RPM ratio (pull-down/input)
26. GATGATTGTTCTCCCAGCTGATGAATTCTCGTCATCGAGTAAACAAATTTTCCTAATCTTTCTGTTCAAGCGCCATCTAC  0.998 RPM ratio (pull-down/input)
27. GATGATTGTTCTCCCAGCTGATGAATTCAGGACATCGAGTAAACAAATTTTCCTAATCTTTCTGTTCAAGCGCCATCTAC  0.996 RPM ratio (pull-down/input)
28. GATGATTGTTCTCCCAGCTGATGAATTAATTTAATCGAGTAAACAAATTTTCCTAATCTTTCTGTTCAAGCGCCATCTAC  0.99 RPM ratio (pull-down/input)
29. GATGATTGTTCTCCCAGCTGATGAATTTTAAGAATCGAGTAAACAAATTTTCCTAATCTTTCTGTTCAAGCGCCATCTAC  0.988 RPM ratio (pull-down/input)
30. GATGATTGTTCTCCCAGCTGATGAATTAATTGGTTCGAGTAAACAAATTTTCCTAATCTTTCTGTTCAAGCGCCATCTAC  0.987 RPM ratio (pull-down/input)
31. GATGATTGTTCTCCCAGCTGATGAATTCGTATCGTCGAGTAAACAAATTTTCCTAATCTTTCTGTTCAAGCGCCATCTAC  0.979 RPM ratio (pull-down/input)
32. GATGATTGTTCTCCCAGCTGATGAATTTTTCCATTCGAGTAAACAAATTTTCCTAATCTTTCTGTTCAAGCGCCATCTAC  0.965 RPM ratio (pull-down/input)
33. GATGATTGTTCTCCCAGCTGATGAATTCTGTGAATCGAGTAAACAAATTTTCCTAATCTTTCTGTTCAAGCGCCATCTAC  0.961 RPM ratio (pull-down/input)
34. GATGATTGTTCTCCCAGCTGATGAATTCGCACCATCGAGTAAACAAATTTTCCTAATCTTTCTGTTCAAGCGCCATCTAC  0.958 RPM ratio (pull-down/input)
35. GATGATTGTTCTCCCAGCTGATGAATTTCTCCGATCGAGTAAACAAATTTTCCTAATCTTTCTGTTCAAGCGCCATCTAC  0.941 RPM ratio (pull-down/input)
36. GATGATTGTTCTCCCAGCTGATGAATTTATACGGTCGAGTAAACAAATTTTCCTAATCTTTCTGTTCAAGCGCCATCTAC  0.938 RPM ratio (pull-down/input)
37. GATGATTGTTCTCCCAGCTGATGAATTGTCGTGCTCGAGTAAACAAATTTTCCTAATCTTTCTGTTCAAGCGCCATCTAC  0.933 RPM ratio (pull-down/input)
38. GATGATTGTTCTCCCAGCTGATGAATTCATCTACTCGAGTAAACAAATTTTCCTAATCTTTCTGTTCAAGCGCCATCTAC  0.93 RPM ratio (pull-down/input)
39. GATGATTGTTCTCCCAGCTGATGAATTAGATGGATCGAGTAAACAAATTTTCCTAATCTTTCTGTTCAAGCGCCATCTAC  0.927 RPM ratio (pull-down/input)
40. GATGATTGTTCTCCCAGCTGATGAATTTGCGAAGTCGAGTAAACAAATTTTCCTAATCTTTCTGTTCAAGCGCCATCTAC  0.924 RPM ratio (pull-down/input)
41. GATGATTGTTCTCCCAGCTGATGAATTCGGCCATTCGAGTAAACAAATTTTCCTAATCTTTCTGTTCAAGCGCCATCTAC  0.918 RPM ratio (pull-down/input)
42. GATGATTGTTCTCCCAGCTGATGAATTGGCACGCTCGAGTAAACAAATTTTCCTAATCTTTCTGTTCAAGCGCCATCTAC  0.914 RPM ratio (pull-down/input)
43. GATGATTGTTCTCCCAGCTGATGAATTCGATTACTCGAGTAAACAAATTTTCCTAATCTTTCTGTTCAAGCGCCATCTAC  0.91 RPM ratio (pull-down/input)
44. GATGATTGTTCTCCCAGCTGATGAATTGGGCGCTTCGAGTAAACAAATTTTCCTAATCTTTCTGTTCAAGCGCCATCTAC  0.892 RPM ratio (pull-down/input)
45. GATGATTGTTCTCCCAGCTGATGAATTCCGCATGTCGAGTAAACAAATTTTCCTAATCTTTCTGTTCAAGCGCCATCTAC  0.892 RPM ratio (pull-down/input)
46. GATGATTGTTCTCCCAGCTGATGAATTCGTAGCCTCGAGTAAACAAATTTTCCTAATCTTTCTGTTCAAGCGCCATCTAC  0.888 RPM ratio (pull-down/input)
47. GATGATTGTTCTCCCAGCTGATGAATTTTGGCCTTCGAGTAAACAAATTTTCCTAATCTTTCTGTTCAAGCGCCATCTAC  0.886 RPM ratio (pull-down/input)
48. GATGATTGTTCTCCCAGCTGATGAATTGAGATATTCGAGTAAACAAATTTTCCTAATCTTTCTGTTCAAGCGCCATCTAC  0.881 RPM ratio (pull-down/input)
49. GATGATTGTTCTCCCAGCTGATGAATTTAACCGTTCGAGTAAACAAATTTTCCTAATCTTTCTGTTCAAGCGCCATCTAC  0.876 RPM ratio (pull-down/input)
50. GATGATTGTTCTCCCAGCTGATGAATTATGGGCTTCGAGTAAACAAATTTTCCTAATCTTTCTGTTCAAGCGCCATCTAC  0.874 RPM ratio (pull-down/input)
51. GATGATTGTTCTCCCAGCTGATGAATTACCCTCGTCGAGTAAACAAATTTTCCTAATCTTTCTGTTCAAGCGCCATCTAC  0.871 RPM ratio (pull-down/input)
52. GATGATTGTTCTCCCAGCTGATGAATTTGGCCGTTCGAGTAAACAAATTTTCCTAATCTTTCTGTTCAAGCGCCATCTAC  0.867 RPM ratio (pull-down/input)
53. GATGATTGTTCTCCCAGCTGATGAATTCCTAGCGTCGAGTAAACAAATTTTCCTAATCTTTCTGTTCAAGCGCCATCTAC  0.861 RPM ratio (pull-down/input)
54. GATGATTGTTCTCCCAGCTGATGAATTCTGGCTTTCGAGTAAACAAATTTTCCTAATCTTTCTGTTCAAGCGCCATCTAC  0.852 RPM ratio (pull-down/input)
55. GATGATTGTTCTCCCAGCTGATGAATTGCCCCTCTCGAGTAAACAAATTTTCCTAATCTTTCTGTTCAAGCGCCATCTAC  0.852 RPM ratio (pull-down/input)
56. GATGATTGTTCTCCCAGCTGATGAATTGGACTTGTCGAGTAAACAAATTTTCCTAATCTTTCTGTTCAAGCGCCATCTAC  0.846 RPM ratio (pull-down/input)
57. GATGATTGTTCTCCCAGCTGATGAATTATCCTTCTCGAGTAAACAAATTTTCCTAATCTTTCTGTTCAAGCGCCATCTAC  0.844 RPM ratio (pull-down/input)
58. GATGATTGTTCTCCCAGCTGATGAATTTGCCGGATCGAGTAAACAAATTTTCCTAATCTTTCTGTTCAAGCGCCATCTAC  0.839 RPM ratio (pull-down/input)
59. GATGATTGTTCTCCCAGCTGATGAATTCGCGAGATCGAGTAAACAAATTTTCCTAATCTTTCTGTTCAAGCGCCATCTAC  0.83 RPM ratio (pull-down/input)
60. GATGATTGTTCTCCCAGCTGATGAATTAACCTCCTCGAGTAAACAAATTTTCCTAATCTTTCTGTTCAAGCGCCATCTAC  0.811 RPM ratio (pull-down/input)
61. GATGATTGTTCTCCCAGCTGATGAATTCTCGATCTCGAGTAAACAAATTTTCCTAATCTTTCTGTTCAAGCGCCATCTAC  0.774 RPM ratio (pull-down/input)
62. GATGATTGTTCTCCCAGCTGATGAATTCGGCGGCTCGAGTAAACAAATTTTCCTAATCTTTCTGTTCAAGCGCCATCTAC  0.759 RPM ratio (pull-down/input)
63. GATGATTGTTCTCCCAGCTGATGAATTCTGATCCTCGAGTAAACAAATTTTCCTAATCTTTCTGTTCAAGCGCCATCTAC  0.734 RPM ratio (pull-down/input)
